B1: TPR 5TU (parent)
chain: GGAUCUUCUCGAUCUAACAAAAAAGACAAAUCUGCCACAAAGCUUGAGAGCAUCUUCGGAUGCAGAGGCGGCAGCCUUCGGUGGCGCGAUAGCGCCAACGUUCUCAACUAUGACACGCAAAACGCGUGCUCCGUUGAAUGGAGUUUAUCAUG

This sample is rich in variants without activity.

Data on 19 variants can be found in the RNAGym collection of RNA variant scans (doi:10.1073/pnas.2313332121).

The series covers variants of B1. Nature of the series: polymerase ribozyme fitness, log enrichment relative to wild type (log ratio); higher = more active; in vitro selection for triplet polymerase activity. Put shortly: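 Genotype fitness is the logarithm of its enrichment divided by wild-type enrichment, using inverse-variance-weighted averages of replicates. That logarithm is base 2. Enrichment was measured by Illumina sequencing of input and output libraries from one triplicate in vitro selection round, with frozen incubation at −7 °C, on PCR-built, transcribed mutant libraries of each subunit of a heterodimeric triplet polymerase ribozyme, retaining genotypes with ≥10 input reads and ≥1 read per output.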
As for GGAUCUUCUCGAUCUAACGAAUAAGACAAAUCUGCCACAAAGCUUGAGAGCAUCUUCUGAUGCAGAGGCGGCCGCCUUCGGUGGCGCGAUAGCGCCAACGUUCUCAACUAUGUCACGCCAAACGCGUGCUCCGUUGAAUGGAGUUUAUCAUG [A19G A22U G58U A73C A113U A119C], the “polymerase ribozyme fitness (log ratio)” value is at most -4.2. The value for GGAUCUUCUCGAUCUAACGAAAAAGACUAAUCUGCCACAAAGCUUGAGGGUAUCAUCGGAUGCAGAGGCGGCAGCCUUCGGUGGCACGAUAGCUCAAACGUUCUCAACUAUGACACGCAAAACGCGUGCUCCGUUGAAUGGAGGUUAUCAUG [A19G A28U A49G C51U U55A G86A G94U C96A U144G] was at most -4.2; that for GGAUCUUCUCGAUCUAACCAAAAAGACAAAUCUGCCACAAAGCUUGAGAGCAUCUUCGGAAGCAGAGGCGGCAGCCUUCGGUGGCGCGAUAGCGCCAACGUUAUCAACUAUGACACGCAAAACGCGUGCUCCGUUGAAUGGAGUUUAUCAUG [A19C U61A C103A] was at most -4.2. With GGAUCUUCUCGAUCUAACCAAAAAGACAAAUCUGCCACAAAGCUUGAGAGCAUCUUCGGAAGCAGAGGCGGCAGCCUUCGGUGGCGCGAUAGGGCCAACGUUCUCUACUAUGACACGCAAAACGCGUGCUCCGUUGAAUGGAGUUUAUAAUG [A19C U61A C93G A106U C149A], the “polymerase ribozyme fitness (log ratio)” value is at most -4.2. Under GGAUCUUCUCGAUCUAACGAAAAAGACCAAUCUGCCACAAAGCUUGAGAGCAUCUUCGGAUGCAGAGGCGGCAGCCUUCGGUGGCGCGUUAGCGCCAACGUUCUCAACUAUGACACGCAAAACGCGUGCUCCUUUGAAUGGCGUUUAUCAUG [A19G A28C A89U G133U A142C] stands at most -4.2; under GGAUCUUCUCGAUCUAACGAAAAAGACACAUCUGCCACAAAGCUUGAGAGCAUCUUCGGAUGCAGAGGCGGCAGCCUUCGGUGGCGCGAUAUCGCCAACGUUCUCAACUAUGACACGCAAAACGCUUGCUCCGUUGAAUGGAGAUUAUCAUG [A19G A29C G92U G126U U144A], at most -4.2; under GGAUCUUCUCGAUCUAACGAAAAAGACAAAUCUGCCACACAGCUUGAGAGCAUCUUCGGAUGCAGAGGCGGCAGCCUUCGGUGGGGCGAUAGCGCCAACGUUCUCAACUAUGACACGCAAAACGCGUGCUCCGUUGAAUGGAGUUUCUCAUG [A19G A40C C85G A147C], -3.28. Under GGAUCUUCUCGAUCUAACGAAAAAGUCAAACCUGCCACAAAGCUUGAGAGCAUCUUCGGAUGCAGAGGCGGCAGCCUUCGGUGGCGCGAUAACGCGAACGUUUUCAACUAUGACACGCAAAACGCGUGCUCCGUUGAAUGGAGUUUAUCAUG [A19G A26U U31C G92A C96G C103U] stands at most -4.2; under GGAUCUUCUCGAUCUAACCAAAAAGACAAAUCUGCCACAAAGCUUGAGAGCAUCAUCGGAUGCAGAGGCGGCUGCCUUCGGGGGCGCGAUAAGGCCAACGUUCUCAACUAUGACACGCAAAACGCGUGCUCCGUAGAAUGGAGUUUAUCAUA [A19C U55A A73U U82G G92A C93G U135A G152A], at most -4.2.

Take GGAUCUUCUCGAUCUAACGAAAAAGGCAAAUCUGCCACAAAGCUUGAGAGCAUCUUCGGAUGCAGAGGCGGCAGCCUUCGGUGGCGCAAUAGCGCCAACGUUCUCAACUAUGACACGCAAAACGCGUGCUCCUUUGAAUGGAGUUUGUCAUG [A19G A26G G88A G133U A147G]: the “polymerase ribozyme fitness (log ratio)” value is at most -4.2. The value for GGAUCUUCUCGAUCUAACCAAAAAGACAAACCUGCCACAAAGCUUGAGAGCAUCUUCGGAUGCAGAGGCGGCAGCCUUCGGUGGCGCGAUAGCGCCAACGUUCUCAACUAUGACACGCAAAACGCGUGCUCCGUUGAAUGGAGUUUAUCAUG [A19C U31C] was 1.56.

GGAUCUUCUCGAUCUAACGUAAAAGACAAAUCUGCCAAAAAGCUUGAGAGCAUCUUCGGAUGCAGAGGCGGCAGCCUUCAGUGGCGCGAUAACGCCAACGUUCUCAACUAUGACACGCAAAACGCGUGCUCCGUUGAAUGGUGUUUAUCAUG [A19G A20U C38A G80A G92A A142U]: the “polymerase ribozyme fitness (log ratio)” value is at most -4.2. Under GGAUCUUCUCGAUCUAACGAAAAAGACAAAUCUGCCACUAAGCUUGAGAGCAUCAUUGGAUGCAGAGGCGGCAGCCUUCGGUGGCGCGAUAGCGCCAACAUUCUCAACUAUGACAUGCAAAACGCGUGCUCCGUUGAACGGAGUUUAUCAUG [A19G A39U U55A C57U G100A C116U U139C] stands at most -4.2; under GGAUCUUCUCGAUCUAACGAAUAAGACAAAUCUGCCACAAAGCUUGAGAGUAUCUUCGGAUGCAGACGCGGCAGCCUUCGGUGGCGCGAUAGCGCCAUCGUUCUCAACUAUGACACGCAAAACGCGUGCUCCGUUGGAUGGAGUUUAUCAUG [A19G A22U C51U G67C A98U A137G], at most -4.2; under GGAUCUUCUCGAUCUAACGAAAAAGACAAAUCUGCCCCAAAGCUUGAGAGCAUCUACGGAGGCAGAGGCGGCAGCCUUCGGGGGCGCGAUAGUGCCAACGCUCUCAACUAUGACACGCAAAACGCGUGCUCUGUUGAAUGGAGUUUAUCAUG [A19G A37C U56A U61G U82G C93U U101C C132U], at most -4.2. Under GGAUCUUCUCGAUCUAACGAAAAAGGCAAAUCUGCCACAAAGCUUGAGAGUCUCUUCGGAUGCAGAGGCGGCAGCCUUCGGUGGCGCGAUAGCGCCAACGUUCUCAACUAUGACACGCAAAACGCGUGCUCCGUUGAAUGGAAUUUAUCAUG [A19G A26G C51U A52C G143A] stands at most -4.2.

For GGAUCUUCUCGAUCUAACGAAAAAGACAAAUCUGCCACAAAGCUUGCGAGCAUUUUCGGAUGCAGAGGCGGCAGCCUUCGGUGGGGCGAUAGCGCGAACGUUCUCAACUAUGACACGCAAAACGCGUGCUCCGUUGAAUCGAAUAUAUCAUG [A19G A47C C54U C85G C96G G140C G143A U145A], the “polymerase ribozyme fitness (log ratio)” value was at most -4.2.

For the variant GGAUCUUCUCGAUCUAACGAAAAAGACAGAUCUGCCACAAAGCUUGAGAGCGUCUUCGGAUGCAGAGGCGGCAGCCUUCGGUGGCGCGAUAGUGCCAACAUUCUCAACUAUGACACGCAAAACGCGUGCUCCCUUGAAUGGAGUUUAUCAUG [A19G A29G A52G C93U G100A G133C], the “polymerase ribozyme fitness (log ratio)” value was at most -4.2.

Take GGAUCUUCUCGAUCUAACGAUAAAGACAAAUGUGCCACGAAGCUUGAGAACAUCUUCGGAUGCAGAGGCGGCAGCCUUCGGUGUCGCGAUAGCGCCAACGUUCUCCACUAUGACACGCAAAACGCGUACUCGGGUGAAUGGAGGUUAUCAUG [A19G A21U C32G A39G G50A G84U A106C G128A C132G U134G U144G]: the “polymerase ribozyme fitness (log ratio)” value was at most -4.2.
